No constants are given. Whether binding was seen depends on the method and setting. In cells and extracts the contact can be indirect. Some results given as binding are weak or reduced against the parent protein; the word gives no strength.
Experiments:
[1] = target: human HSJ1a (DNAJB2a), transgene product (human) (UniProt P25686); assay: co-IP; spinal cord lysates (PBS, protease inhibitors, sonicated) of WT, hHSJ1a, G93A and DBLE male mice at 120 days; reciprocal precipitation with anti-SOD1 (C4F6) or anti-HSJ1 (S653) on protein-G Dynabeads, control IgG; Western blot for HSJ1 and SOD1
[2] = target: GFP-tagged SOD1 G93A (human) (UniProt P00441); assay: co-IP; RIPA lysates of SK-N-SH cells co-transfected with GFP-SOD1 (WT or G93A) and myc-HSJ1a (wild type, H31Q or ΔUIM); reciprocal precipitation with anti-GFP or anti-myc (9E10) on protein-G Dynabeads, control IgG; Western blot with SOD-100 or S653
[3] = target: GFP-tagged wild-type SOD1 (human) (UniProt P00441); assay: as above
[4] = target: human SOD1 G93A mutant protein, transgene product (human) (UniProt P00441); assay: co-IP; spinal cord lysates (PBS, protease inhibitors, sonicated) of WT, hHSJ1a, G93A and DBLE male mice at 120 days; reciprocal precipitation with anti-SOD1 (C4F6) or anti-HSJ1 (S653) on protein-G Dynabeads, control IgG; Western blot for HSJ1 and SOD1

By UniProt entry, the sequences of proteins in these tests, tags left out. Where a name states a change or a piece, a line headed by the entry shows the natural chain unless it says otherwise. Chains listed by the source or under a name are the forms on record and can include a tag or linker.
human HSJ1a (DNAJB2a), transgene product (P25686-2, form named): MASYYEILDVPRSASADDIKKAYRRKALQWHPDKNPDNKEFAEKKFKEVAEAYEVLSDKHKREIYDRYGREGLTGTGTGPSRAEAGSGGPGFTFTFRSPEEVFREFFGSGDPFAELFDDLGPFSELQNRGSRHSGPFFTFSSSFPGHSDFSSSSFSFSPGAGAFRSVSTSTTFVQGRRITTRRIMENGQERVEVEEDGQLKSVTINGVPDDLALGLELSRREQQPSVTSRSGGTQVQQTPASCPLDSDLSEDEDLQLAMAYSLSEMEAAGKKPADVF
myc-tagged HSJ1a J domain mutant H31Q (P25686-2, form named): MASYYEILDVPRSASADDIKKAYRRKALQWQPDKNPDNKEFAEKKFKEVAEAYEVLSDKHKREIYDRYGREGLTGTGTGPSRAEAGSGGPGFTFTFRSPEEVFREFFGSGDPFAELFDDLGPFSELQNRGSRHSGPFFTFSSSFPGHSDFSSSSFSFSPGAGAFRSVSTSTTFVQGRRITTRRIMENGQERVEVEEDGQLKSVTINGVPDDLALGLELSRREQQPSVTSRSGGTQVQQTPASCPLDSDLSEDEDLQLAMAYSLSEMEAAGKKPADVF
myc-tagged HSJ1a UIM mutant (S219A/E222A/S262A/E265A) (P25686-2, form named): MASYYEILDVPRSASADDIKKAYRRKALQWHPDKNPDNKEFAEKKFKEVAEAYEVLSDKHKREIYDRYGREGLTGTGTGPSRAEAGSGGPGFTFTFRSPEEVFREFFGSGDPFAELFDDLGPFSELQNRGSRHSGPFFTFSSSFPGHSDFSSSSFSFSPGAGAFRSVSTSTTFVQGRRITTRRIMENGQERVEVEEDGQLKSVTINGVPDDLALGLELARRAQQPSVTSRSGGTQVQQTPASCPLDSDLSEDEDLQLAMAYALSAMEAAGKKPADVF
UniProt P00441: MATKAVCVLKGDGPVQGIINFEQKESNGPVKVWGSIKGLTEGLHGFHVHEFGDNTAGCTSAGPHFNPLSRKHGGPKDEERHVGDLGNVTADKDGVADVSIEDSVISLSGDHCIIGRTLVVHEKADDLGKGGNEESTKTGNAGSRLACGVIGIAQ
GFP-tagged SOD1 G93A (P00441, form named): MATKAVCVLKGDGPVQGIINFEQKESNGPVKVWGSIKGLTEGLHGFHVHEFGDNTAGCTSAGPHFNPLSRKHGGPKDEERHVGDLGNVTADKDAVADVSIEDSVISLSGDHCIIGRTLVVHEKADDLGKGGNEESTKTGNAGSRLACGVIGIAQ
UniProt Q9QYI5: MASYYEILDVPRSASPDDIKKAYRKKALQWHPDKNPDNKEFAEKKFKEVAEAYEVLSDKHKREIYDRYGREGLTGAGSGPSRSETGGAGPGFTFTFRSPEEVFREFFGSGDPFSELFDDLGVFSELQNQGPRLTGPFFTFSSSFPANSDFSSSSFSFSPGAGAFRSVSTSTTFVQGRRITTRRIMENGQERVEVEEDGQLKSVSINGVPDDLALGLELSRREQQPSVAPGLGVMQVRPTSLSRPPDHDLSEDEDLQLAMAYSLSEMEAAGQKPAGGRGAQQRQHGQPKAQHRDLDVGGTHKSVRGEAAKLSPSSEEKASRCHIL

binding [2] | binding [4] | Substance | further results
– | – | human SOD1 G93A mutant protein, transgene product (from UniProt P00441 1-154) | binding [1]: binds
binds | – | myc-tagged HSJ1a, wild type (from UniProt P25686-2 1-277) | binding [3]: binds weakly
binds | – | myc-tagged HSJ1a J domain mutant H31Q (from UniProt P25686-2 1-277) | –
– | binds | human HSJ1a (DNAJB2a), transgene product (from UniProt P25686-2 1-277) | –
– | no binding | endogenous mouse HSJ1b (from UniProt Q9QYI5 1-324) | –
binds | – | myc-tagged HSJ1a UIM mutant (S219A/E222A/S262A/E265A) (from UniProt P25686-2 1-277) | –
